{
  "source": "paper PMC4336329",
  "about": "(PLoS ONE, 2015)",
  "note": "Hit rate of the full screen: of about 310,000 compounds, about 14,000 (4.5%) showed an effect of 50% or more. Effects have a minus sign here. This is one part of the list.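 Note: peak tail current of the secondary pulse compared with the same well before compound.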",
  "data": [
    {"target": "human ether-à-go-go-related gene (hERG) potassium channel (human, UniProt Q12809)", "sequence (Q12809 whole entry, looked up)": "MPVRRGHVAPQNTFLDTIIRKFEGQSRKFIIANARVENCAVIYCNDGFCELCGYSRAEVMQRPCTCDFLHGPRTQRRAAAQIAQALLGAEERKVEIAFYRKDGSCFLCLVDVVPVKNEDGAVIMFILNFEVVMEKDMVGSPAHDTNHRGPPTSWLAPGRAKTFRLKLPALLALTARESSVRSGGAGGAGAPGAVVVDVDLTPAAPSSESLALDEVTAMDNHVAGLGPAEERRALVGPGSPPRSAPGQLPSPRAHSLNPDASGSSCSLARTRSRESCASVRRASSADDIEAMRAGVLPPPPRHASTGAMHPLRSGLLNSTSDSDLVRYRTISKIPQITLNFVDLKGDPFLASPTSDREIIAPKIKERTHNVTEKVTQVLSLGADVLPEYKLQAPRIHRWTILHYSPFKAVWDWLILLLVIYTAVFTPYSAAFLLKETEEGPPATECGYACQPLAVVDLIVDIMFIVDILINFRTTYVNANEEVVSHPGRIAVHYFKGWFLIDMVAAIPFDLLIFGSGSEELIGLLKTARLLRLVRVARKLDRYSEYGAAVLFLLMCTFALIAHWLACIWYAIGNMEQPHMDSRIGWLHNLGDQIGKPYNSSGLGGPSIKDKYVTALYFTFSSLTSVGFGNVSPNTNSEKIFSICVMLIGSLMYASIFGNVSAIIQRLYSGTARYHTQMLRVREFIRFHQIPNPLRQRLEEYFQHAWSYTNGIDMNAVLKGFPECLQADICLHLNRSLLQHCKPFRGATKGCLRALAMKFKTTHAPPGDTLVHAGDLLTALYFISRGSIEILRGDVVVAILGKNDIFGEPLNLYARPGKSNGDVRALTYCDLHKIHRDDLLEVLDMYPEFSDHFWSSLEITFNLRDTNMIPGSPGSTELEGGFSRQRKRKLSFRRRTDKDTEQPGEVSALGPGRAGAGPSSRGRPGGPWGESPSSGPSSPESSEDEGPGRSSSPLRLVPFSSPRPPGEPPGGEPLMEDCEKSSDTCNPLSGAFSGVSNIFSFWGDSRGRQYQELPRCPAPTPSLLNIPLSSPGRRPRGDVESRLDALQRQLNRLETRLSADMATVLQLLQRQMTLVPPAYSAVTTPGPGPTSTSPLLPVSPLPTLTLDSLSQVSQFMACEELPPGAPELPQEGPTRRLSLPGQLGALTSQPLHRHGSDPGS", "experiment": "primary screen, population patch clamp on CHO cells stably expressing hERG", "units": {"hERG current change (%, negative = inhibition) at 10uM": "%"}, "values": [
      {"smiles": "Cc1cc2[nH]c(=O)c(=O)[nH]c2cc1S(=O)(=O)Nc1cccc(Cl)c1", "hERG current change (%, negative = inhibition) at 10uM": 14.6},
      {"smiles": "COc1ccc(N2CCN(C(=O)CCC(=O)N3CCOc4ccc(Cl)cc43)CC2)cc1", "hERG current change (%, negative = inhibition) at 10uM": -52.8},
      {"smiles": "COC(=O)c1c(NC(=O)COC(=O)C2CCC2)sc(C)c1C", "hERG current change (%, negative = inhibition) at 10uM": -13.4},
      {"smiles": "Cc1ccnc(NC(=O)C2CCN(S(=O)(=O)c3ccc4c(c3)CC(C)N4C(=O)C3CCC3)CC2)c1", "note": "(centres unmarked)", "hERG current change (%, negative = inhibition) at 10uM": -0.431},
      {"smiles": "Cc1ccc(Cl)cc1N1CCN(C(=O)c2ccc3c(c2)CCN3S(C)(=O)=O)CC1", "hERG current change (%, negative = inhibition) at 10uM": 8.77},
      {"smiles": "O=C1c2ccccc2S(=O)(=O)N1Cc1cc(=O)n2ccsc2n1", "hERG current change (%, negative = inhibition) at 10uM": -0.428},
      {"smiles": "CN1CCN(NC(=O)Nc2ccc(F)cc2)CC1", "hERG current change (%, negative = inhibition) at 10uM": 14.1},
      {"smiles": "Oc1ccc(N2CCN(c3nc(-c4cccs4)nc4ccccc34)CC2)cc1", "hERG current change (%, negative = inhibition) at 10uM": 16.5},
      {"smiles": "Cc1c(CCO)sc[n+]1CC(=O)OC12CC3CC(CC(C3)C1)C2.[Cl-]", "hERG current change (%, negative = inhibition) at 10uM": 19.8},
      {"smiles": "COc1ccccc1N(C)S(=O)(=O)c1ccc(C(=O)Nc2ccc(N3CCOCC3)cc2)cc1", "hERG current change (%, negative = inhibition) at 10uM": 4.35},
      {"smiles": "COc1ccc(NC(=O)Cn2cnc3sc(C)c(S(=O)(=O)N4CCOCC4)c3c2=O)c(OC)c1", "hERG current change (%, negative = inhibition) at 10uM": -9.68},
      {"smiles": "COc1ccc(N(C)C(=O)c2ccc(NC(=O)CCS(=O)(=O)c3cccs3)cc2)cc1", "hERG current change (%, negative = inhibition) at 10uM": 15.8},
      {"smiles": "CCOCCCNC(=O)c1cc2cc3cc(OC)ccc3nc2o1", "hERG current change (%, negative = inhibition) at 10uM": -7.74},
      {"smiles": "Cc1cc(OCC(=O)NNC(=O)c2ccncc2)cc(C)c1Cl", "hERG current change (%, negative = inhibition) at 10uM": 14.9},
      {"smiles": "O=c1c2ccc(Cl)cc2nc(-c2ccc([N+](=O)[O-])cc2)n1O", "hERG current change (%, negative = inhibition) at 10uM": -12.6},
      {"smiles": "Cc1ccc(S(=O)(=O)N(CC2CO2)c2cc(Cl)ccc2Cl)cc1", "note": "(centres unmarked)", "hERG current change (%, negative = inhibition) at 10uM": -6.93},
      {"smiles": "CCc1cc2c(NC(Cc3c[nH]c4ccccc34)C(=O)O)nc(C)nc2s1", "note": "(centres unmarked)", "hERG current change (%, negative = inhibition) at 10uM": 31.3},
      {"smiles": "CCCc1nc(C)c2c(=O)[nH]c(-c3cc(S(=O)(=O)N4CCN(CC)CC4)ccc3OCC)nn12.O=C(O)CC(O)(CC(=O)O)C(=O)O", "hERG current change (%, negative = inhibition) at 10uM": 0.215},
      {"smiles": "Cc1ccc(-c2csc3ncnc(Nc4ccc(C(=O)O)cc4)c23)cc1.Cl", "hERG current change (%, negative = inhibition) at 10uM": 11.5},
      {"smiles": "CCC(=O)OC1CC(C)N(C(=O)c2ccccc2)c2ccc(C)cc21", "note": "(centres unmarked)", "hERG current change (%, negative = inhibition) at 10uM": -12.3},
      {"smiles": "COc1ccc(S(=O)(=O)NCC(=O)N(CC(=O)NC(C)(C)C)Cc2cccs2)cc1", "hERG current change (%, negative = inhibition) at 10uM": 8.09},
      {"smiles": "CSc1ccc(CN(C)C(=O)C23CC4CC(CC(Cl)(C4)C2)C3)cc1", "hERG current change (%, negative = inhibition) at 10uM": 9.08},
      {"smiles": "CCOC(=O)c1[nH]c(C)c(C(=O)OCCOc2cccc(C)c2)c1C", "hERG current change (%, negative = inhibition) at 10uM": 5.99},
      {"smiles": "CSc1c(CC(=O)Nc2ccccc2C(F)(F)F)n(Cc2ccccc2)c2ccccc12", "hERG current change (%, negative = inhibition) at 10uM": 7.04},
      {"smiles": "CC(C)NC(=O)CN1CCC(c2nc3ccccc3[nH]2)CC1", "hERG current change (%, negative = inhibition) at 10uM": -8.64},
      {"smiles": "Cc1cc(C(=O)Nc2sccc2C#N)c2ccccc2n1", "hERG current change (%, negative = inhibition) at 10uM": 16.5},
      {"smiles": "O=C(CN1CCCCC1)Nc1cc(Cl)ccc1Cl", "hERG current change (%, negative = inhibition) at 10uM": -0.685},
      {"smiles": "Cc1ccc2c(CN3CC=C(c4ccccc4)CC3)cc(=O)oc2c1C", "hERG current change (%, negative = inhibition) at 10uM": -2.08},
      {"smiles": "Cc1ccc(CNC(=O)C2CCC(=O)N(CCc3ccc(Cl)cc3)C2)s1", "note": "(centres unmarked)", "hERG current change (%, negative = inhibition) at 10uM": -69.4},
      {"smiles": "CCC(C)(C)n1nnnc1C(c1cccs1)N1CCCCC1", "note": "(centres unmarked)", "hERG current change (%, negative = inhibition) at 10uM": -19.4},
      {"smiles": "COc1cc(/C=C(\\C#N)C(=O)Nc2ccccc2F)ccc1OCCN1CCOCC1", "hERG current change (%, negative = inhibition) at 10uM": -64.6},
      {"smiles": "COc1ccc(N2CCN(C(=O)CCNC(=O)c3ccc(Br)cc3)CC2)cc1", "hERG current change (%, negative = inhibition) at 10uM": -20.2},
      {"smiles": "CC(=O)c1ccc(N2CCN(CC3CCCCC3)CC2)cc1", "hERG current change (%, negative = inhibition) at 10uM": -24},
      {"smiles": "CC(=O)Nc1ccc(S(=O)(=O)N2CCC(C(=O)NC3CCCC3)CC2)cc1", "hERG current change (%, negative = inhibition) at 10uM": -0.813},
      {"smiles": "N#C/C(=C\\c1ccc[nH]1)S(=O)(=O)c1ccccc1", "hERG current change (%, negative = inhibition) at 10uM": 9.66},
      {"smiles": "OC(CN1CCC(c2c[nH]c3ccccc23)CC1)C(F)(F)F", "note": "(centres unmarked)", "hERG current change (%, negative = inhibition) at 10uM": 2.96},
      {"smiles": "CN(C)/C(=N\\S(=O)(=O)c1ccccc1)c1ccc([N+](=O)[O-])cc1", "hERG current change (%, negative = inhibition) at 10uM": 4.32},
      {"smiles": "O=C(Nc1ccccc1)C1CCCN1S(=O)(=O)c1cccs1", "note": "(centres unmarked)", "hERG current change (%, negative = inhibition) at 10uM": 13.7},
      {"smiles": "CC(=O)Nc1ccc(S(=O)(=O)N2CCN(C(=O)c3ncoc3-c3cccc(F)c3)CC2)cc1", "hERG current change (%, negative = inhibition) at 10uM": 4.84},
      {"smiles": "O=c1[nH]c(Cc2ccccn2)nc2scc(-c3ccccc3Cl)c12", "hERG current change (%, negative = inhibition) at 10uM": -13.9},
      {"smiles": "CC(C(=O)N1c2ccc(F)cc2CCC1C)N1C(=O)c2ccccc2C1=O", "note": "(centres unmarked)", "hERG current change (%, negative = inhibition) at 10uM": 2.72},
      {"smiles": "Cc1cc(C)c(NC(=O)C(C)c2cccc(C(=O)c3ccccc3)c2)c(C)c1", "note": "(centres unmarked)", "hERG current change (%, negative = inhibition) at 10uM": 0.99},
      {"smiles": "COCc1cc(C)nc(OCC(=O)N/N=C/c2ccco2)c1C#N", "hERG current change (%, negative = inhibition) at 10uM": 21.4},
      {"smiles": "CCNc1ccc(S(=O)(=O)N(C)C)cc1NCC(=O)Nc1ccccc1Br", "hERG current change (%, negative = inhibition) at 10uM": 28}
    ]}
  ]
}
